In the supplement of paper PMC3334620:
The full ranking holds about 33,000 sequences; the median of “E-score (-0.5 to 0.5)” is about -0.021, and the highest 2% start at about 0.32. The list shows a part of the results.

These sequences were tested against T1, Zap1 (UniProt P47043) (assay: PBM E-score (8-mer binding enrichment) (E-score (-0.5 to 0.5)); higher = stronger / more preferred TF binding; most listed sequences are background and not binding sites). Settings: protein concentration: 200 nM; construct: GST-full length.
T1 sequence: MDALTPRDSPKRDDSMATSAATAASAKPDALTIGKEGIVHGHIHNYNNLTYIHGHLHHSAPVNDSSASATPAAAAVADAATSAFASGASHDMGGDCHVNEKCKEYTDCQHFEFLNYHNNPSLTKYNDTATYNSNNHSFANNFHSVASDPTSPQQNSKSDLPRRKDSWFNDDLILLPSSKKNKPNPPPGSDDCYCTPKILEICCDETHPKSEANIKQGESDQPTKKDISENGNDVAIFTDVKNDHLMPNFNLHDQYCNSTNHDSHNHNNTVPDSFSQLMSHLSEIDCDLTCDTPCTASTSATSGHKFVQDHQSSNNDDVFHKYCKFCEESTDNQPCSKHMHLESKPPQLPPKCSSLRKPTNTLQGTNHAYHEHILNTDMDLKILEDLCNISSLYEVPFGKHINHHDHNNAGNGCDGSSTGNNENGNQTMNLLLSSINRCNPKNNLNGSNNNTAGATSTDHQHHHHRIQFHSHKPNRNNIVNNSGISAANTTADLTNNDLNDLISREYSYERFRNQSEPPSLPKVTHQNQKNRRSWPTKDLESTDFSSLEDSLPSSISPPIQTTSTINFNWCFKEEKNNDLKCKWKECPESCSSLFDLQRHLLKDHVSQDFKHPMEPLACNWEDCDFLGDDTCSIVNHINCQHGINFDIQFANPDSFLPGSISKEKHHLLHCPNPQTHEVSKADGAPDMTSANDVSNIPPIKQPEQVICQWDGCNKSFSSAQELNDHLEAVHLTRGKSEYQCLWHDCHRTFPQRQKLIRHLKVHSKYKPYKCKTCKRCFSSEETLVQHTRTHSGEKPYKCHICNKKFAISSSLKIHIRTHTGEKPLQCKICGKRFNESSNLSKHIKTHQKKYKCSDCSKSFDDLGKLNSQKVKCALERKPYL
In short: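 Full-length yeast transcription factors or their DNA-binding domains, GST-tagged and expressed with PURExpress, were applied at about 100-200 nM to universal all-10-mer Agilent arrays. These arrays had been made double-stranded by primer extension on fresh or once-stripped slides. Detection used fluorescent anti-GST, normalisation used masliner, and E-scores for ungapped eight-base words pooled with reverse complements came from the Universal PBM Analysis Suite.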

Going from TCACGGCA to ATGGATTC, the “PBM E-score” value rises from -0.102 to -0.0696.

Going from AACCCCGG to ACCCCTGA, the “PBM E-score” value falls from 0.337 to 0.28.

First: ACTCTGTG
Second: CCACATCA
The “PBM E-score” value of the first is lower: -0.132 for the first, 0.039 for the second.

First: AAGGTCAT
Second: AAAAAAGT
The “PBM E-score” value of the first is higher: 0.444 for the first, 0.159 for the second.

Compared with CTGTAACA, CGGTGCCC is higher in “PBM E-score” value: 0.00661 for the first, 0.0776 for the second.

Going from AATTGAGT to GTCAGTGA, the “PBM E-score” value rises from 0.0567 to 0.143.

Compared with TCCGATCA, ACATATAT is lower in “PBM E-score” value: 0.0772 for the first, 0.0326 for the second.

Going from ACGACGGC to CACTACGG, the “PBM E-score” value rises from -0.351 to -0.0708.

Compared with AGTGACGG, ACTTTGCC is lower in “PBM E-score” value: -0.00179 for the first, -0.129 for the second.

Compared with AGAGAAAA, GTATATAA is higher in “PBM E-score” value: 0.126 for the first, 0.252 for the second.

Compared with ATTGGACG, ATTTCGGC is higher in “PBM E-score” value: -0.134 for the first, -0.0784 for the second.

Going from CCCTTTGC to AGTGTTTA, the “PBM E-score” value falls from 0.206 to 0.203.

Compared with CAGCTGCC, AGCCAAGA is higher in “PBM E-score” value: -0.2 for the first, -0.112 for the second.

First: AACTTAGC
Second: ACAATCCA
The “PBM E-score” value of the first is lower: -0.18 for the first, 0.0725 for the second.

First: AGATAAAG
Second: GGATTGCC
The “PBM E-score” value of the first is higher: -0.0279 for the first, -0.235 for the second.

Going from ATTTAAAT to ACACGAGC, the “PBM E-score” value falls from 0.0468 to -0.14.

Compared with ATGACTCG, CAAGCATG is higher in “PBM E-score” value: -0.115 for the first, -0.107 for the second.

Compared with ACCTTAAT, CAATTCAA is lower in “PBM E-score” value: 0.302 for the first, -0.0242 for the second.

Going from AATCGGGC to CATTCGCG, the “PBM E-score” value rises from -0.0801 to 0.00569.

Compared with CGACGGGC, CTAACGGC is lower in “PBM E-score” value: -0.0628 for the first, -0.0798 for the second.

First: AGAGGCAT
Second: AGACATAC
The “PBM E-score” value of the first is lower: -0.0756 for the first, -0.0158 for the second.

First: CGGATTTA
Second: CCAGCAAC
The “PBM E-score” value of the first is lower: -0.0245 for the first, 0.0673 for the second.

First: ATGCATCG
Second: AAAGAGAC
The “PBM E-score” value of the first is lower: 0.00143 for the first, 0.0611 for the second.

First: GAATGTTA
Second: AGTGTGAA
The “PBM E-score” value of the first is higher: 0.0425 for the first, -0.13 for the second.

First: AGCGTCCG
Second: AATTTAGG
The “PBM E-score” value of the first is lower: -0.24 for the first, 0.145 for the second.

First: ACGGCGAC
Second: ACTCCGGC
The “PBM E-score” value of the first is higher: 0.0079 for the first, -0.151 for the second.

Going from GATGCTAA to AAGCATAA, the “PBM E-score” value rises from -0.0599 to 0.0593.

First: GACAACTA
Second: ATCGTAGC
The “PBM E-score” value of the first is higher: 0.0846 for the first, -0.257 for the second.

Going from GATTGGCA to GCCCTCGA, the “PBM E-score” value falls from -0.0646 to -0.145.

First: CGTAGGCC
Second: AGCGTATC
The “PBM E-score” value of the first is higher: -0.177 for the first, -0.252 for the second.

Going from AGCTAGAC to ACGAGCCT, the “PBM E-score” value rises from -0.257 to -0.253.

Going from ACCAGCAA to CTACCCTC, the “PBM E-score” value rises from 0.26 to 0.35.

First: GCACCCAA
Second: CTAAGCAG
The “PBM E-score” value of the first is higher: 0.103 for the first, -0.0743 for the second.

Compared with ATGGGTTG, TCAATCCA is lower in “PBM E-score” value: 0.234 for the first, 0.0709 for the second.

Compared with GCGATCAA, GTCATGTA is higher in “PBM E-score” value: 0.00263 for the first, 0.021 for the second.

Going from ATGAGATA to TCCGAGGA, the “PBM E-score” value falls from 0.167 to -0.279.

Compared with CCCGTCTC, CCGGTCCG is higher in “PBM E-score” value: -0.236 for the first, -0.00084 for the second.

Going from GGACTTAC to GAATGGCC, the “PBM E-score” value rises from -0.127 to 0.188.

Going from CTCCGGTC to CATCGAGC, the “PBM E-score” value falls from -0.0553 to -0.203.

Compared with CAGTCGTC, CCTCCTGA is higher in “PBM E-score” value: -0.106 for the first, 0.0897 for the second.

Compared with CATTCAAG, CTACTTAA is lower in “PBM E-score” value: 0.116 for the first, -0.137 for the second.

Going from GAGTATGC to CCTCCGTA, the “PBM E-score” value falls from -0.0378 to -0.123.

Going from AGTCCTAG to GGCTCACA, the “PBM E-score” value falls from -0.122 to -0.157.

Going from GACACGTA to CATGTCGG, the “PBM E-score” value rises from -0.148 to -0.0655.

Compared with CAGCGTAG, AAGGACCG is higher in “PBM E-score” value: -0.16 for the first, -0.077 for the second.

First: AGCGTCTC
Second: ACCGTGAC
The “PBM E-score” value of the first is lower: -0.211 for the first, 0.173 for the second.

Going from ACTTGACC to TCCATACA, the “PBM E-score” value falls from 0.1 to -0.014.

First: AAAAATGG
Second: CGTGGTAC
The “PBM E-score” value of the first is higher: 0.192 for the first, 0.103 for the second.

Going from TATTTCCA to AGAAGACA, the “PBM E-score” value falls from 0.0559 to -0.291.

First: CGGAGCCC
Second: CTATAGCA
The “PBM E-score” value of the first is lower: -0.303 for the first, 0.0514 for the second.

Going from AGGAGAGC to AAGCGTTG, the “PBM E-score” value rises from -0.278 to -0.207.

Compared with ATACAGTA, CAGCCGCG is lower in “PBM E-score” value: 0.0214 for the first, -0.108 for the second.

Compared with CCGGGCAG, CGCGACGA is higher in “PBM E-score” value: -0.0902 for the first, 0.0002 for the second.

First: CAAGCTAG
Second: CAAACACA
The “PBM E-score” value of the first is lower: -0.22 for the first, 0.136 for the second.

Going from AGAGTAGA to AGGTCGCC, the “PBM E-score” value falls from 0.107 to 0.0624.

Going from CACGTTCC to CATCTAGC, the “PBM E-score” value falls from -0.136 to -0.194.

Compared with ACCGGTTC, ATGAAGCG is lower in “PBM E-score” value: -0.0449 for the first, -0.212 for the second.

Compared with AGGCAAGA, AAACTTAT is higher in “PBM E-score” value: 0.0461 for the first, 0.19 for the second.

Going from CTTTATTA to CATCCGCA, the “PBM E-score” value falls from 0.159 to -0.0365.

Compared with CGACGACG, TGGGTCAA is higher in “PBM E-score” value: -0.229 for the first, 0.0925 for the second.

First: GAGAGTTA
Second: CGAAAATA
The “PBM E-score” value of the first is lower: 0.0524 for the first, 0.16 for the second.

Going from ACTCGCGC to ATCTCTTC, the “PBM E-score” value falls from 0.0479 to -0.12.

First: AGATCAGC
Second: CCATTACC
The “PBM E-score” value of the first is lower: -0.147 for the first, 0.298 for the second.

Going from GATTTTGA to CACGGCCG, the “PBM E-score” value falls from 0.203 to 0.0275.

Compared with AATTTATG, AGGACGAC is lower in “PBM E-score” value: 0.201 for the first, -0.162 for the second.

Compared with CATACGCA, GTTGATGA is higher in “PBM E-score” value: -0.0546 for the first, 0.0344 for the second.

Compared with CATTCTCA, ACCTCACC is higher in “PBM E-score” value: 0.0502 for the first, 0.052 for the second.

First: TATATAAA
Second: ACTCATGA
The “PBM E-score” value of the first is higher: 0.22 for the first, -0.0211 for the second.

Going from CCAATGGG to TATAATAA, the “PBM E-score” value rises from -0.00785 to 0.256.

Compared with AGACCTTA, AGATTACG is lower in “PBM E-score” value: 0.229 for the first, 0.0995 for the second.

Compared with TTTCCAAA, ACATGCCC is lower in “PBM E-score” value: 0.114 for the first, -0.248 for the second.

Going from AGGTCTAA to ACCACGGT, the “PBM E-score” value falls from 0.145 to 0.121.

First: CCCGTAGA
Second: ACAATCGC
The “PBM E-score” value of the first is lower: -0.246 for the first, 0.0402 for the second.

First: AAATATGT
Second: CAAGTCCG
The “PBM E-score” value of the first is higher: 0.0661 for the first, -0.188 for the second.

Compared with AAAATACT, ATATTCAG is higher in “PBM E-score” value: -0.0706 for the first, 0.0444 for the second.

Going from ATGAGTCA to CCCACCAG, the “PBM E-score” value rises from -0.0894 to 0.0873.

Compared with GTCAGCGA, ACGGGACG is lower in “PBM E-score” value: -0.0372 for the first, -0.114 for the second.

First: AATCAGGG
Second: ATGAATTG
The “PBM E-score” value of the first is lower: 0.00907 for the first, 0.0552 for the second.

Compared with GCACCCCA, TGTGAACA is lower in “PBM E-score” value: 0.276 for the first, -0.0338 for the second.

Going from CGGGTCAA to GTGTTGGA, the “PBM E-score” value falls from 0.163 to -0.0142.

Compared with CACCTTAA, TACGTAAA is lower in “PBM E-score” value: 0.207 for the first, 0.0639 for the second.

Compared with CATCGTAC, GTCGACAC is higher in “PBM E-score” value: 0.02 for the first, 0.126 for the second.

Going from AATTATGG to CCAGCCCC, the “PBM E-score” value falls from 0.0545 to -0.157.

Compared with TGGTCAAA, CCGTTAGG is lower in “PBM E-score” value: 0.265 for the first, 0.182 for the second.

First: AGGCCAAT
Second: AGCTAACA
The “PBM E-score” value of the first is lower: -0.116 for the first, -0.113 for the second.

First: ATCCCTAC
Second: GAGAGGGA
The “PBM E-score” value of the first is higher: -0.023 for the first, -0.285 for the second.
